Scores whose standard error is large were omitted. Not listed are two conditions whose scores span a narrow range. Names with del lack the residues named; names with ins carry added residues between the positions named. For part of these data: The concentration of ogerin is not given here.
B1: GPR68, Q15743 (parent)
chain: MGNITADNSSMSCTIDHTIHQTLAPVVYVTVLVVGFPANCLSLYFGYLQIKARNELGVYLCNLTVADLFYICSLPFWLQYVLQHDNWSHGDLSCQVCGILLYENIYISVGFLCCISVDRYLAVAHPFRFHQFRTLKAAVGVSVVIWAKELLTSIYFLMHEEVIEDENQHRVCFEHYPIQAWQRAINYYRFLVGFLFPICLLLASYQGILRAVRRSHGTQKSRKDQIQRLVLSTVVIFLACFLPYHVLLLVRSVWEASCDFAKGVFNAYHFSLLLTSFNCVADPVLYCFVSETTHRDLARLRGACLAFLTCSRTGRAREAYPLGAPEASGKSGAQGEEPELLTKLHPAFQTPNSPGSGGFPTGRLA

Legend:
[1] = variants of: B1; test: cAMP reporter score (Enrich2 score, wild type = 0); higher = more signal; HEK293T, FACS bins
[2] = variants of: B1; test: surface expression score (Enrich2 score, wild type = 0); higher = more signal; HEK293T, FACS bins

| Variant | cAMP reporter score ([1]; pH 5.5) | cAMP reporter score ([1]; pH 6) | cAMP reporter score ([1]; pH 6, modulator: ogerin) | cAMP reporter score ([1]; pH 6.5, modulator: ogerin) | surface expression score [2] |
| --- | --- | --- | --- | --- | --- |
| S93T | -0.604 | -0.059 | 0.487 | -1.1 | -0.268 |
| E103del | -0.39 | 0.214 | -0.448 | -0.643 | -2.19 |
| C94_Q95insG | -1.48 |  | -1.37 |  | -1.79 |
| E103_N104insGSG | 0.201 |  | -1.36 | -0.728 |  |
| N104_I105insG | -0.65 | -0.284 | -1.31 | -0.149 | -1.21 |
| Y102H | -1.66 | -0.064 | -0.374 | -0.99 | 1.62 |
| Y102A | -0.917 | -0.614 | -1.65 | -0.877 | 0.623 |
| Y102C | -1.14 |  | -0.668 | 0.837 |  |
| Y102D | -0.906 | -0.103 | -1.3 | -0.738 | -0.692 |
| Y102Q | -1.58 |  | -1.39 |  | 2.48 |
| Y102R | -2.02 | -1.31 | -1.49 | -1.25 | 0.606 |
| Y102S | -0.561 | -0.516 | -1.05 | -1.36 | 1.55 |
| Y102V | -0.754 |  | -1.99 | -0.736 | -0.047 |
| Y102F | -1.07 |  | -1.13 | -0.647 | 1.28 |
| Y102G | -1.31 |  |  |  | -1.18 |
| Y102M | -1.47 | -1.22 | -1.63 | -1.79 | -0.109 |
| Y102I | -1.28 | -0.31 | -0.698 | 0.003 | 1.77 |
| Y102L | -1.69 | -1.64 | -0.924 | -1.4 | -0.293 |
| Y102K | -1.79 | -0.632 | -1.74 | -1.51 | 2.11 |
| Y102P | -1.77 |  | -3.27 | -2.83 | -0.151 |
| Y102N | -1.51 |  | -2.4 | -1.17 | 1.75 |
| L92_S93insGSG | -2.06 | -0.042 | -3.31 |  | -0.993 |

| Variant | cAMP reporter score ([1]; pH 5.5) | cAMP reporter score ([1]; pH 6) | cAMP reporter score ([1]; pH 6, modulator: ogerin) | cAMP reporter score ([1]; pH 6.5, modulator: ogerin) | surface expression score [2] |
| --- | --- | --- | --- | --- | --- |
| H89_G90del | -1.2 | -0.715 | -0.978 | -0.802 | -0.314 |
| E103_N104insGS | 0.027 |  |  | -0.189 | -1.95 |
| S93del | -1.92 | -0.855 | -2.12 | -1.71 | -1.85 |
| L100_L101insGSG | -3.4 | -0.532 | -1.41 | -1.09 | -1.29 |
| L101_E103del | -1.24 |  | -2.78 | -0.836 | -1.52 |
| V96_C97insG | 0.039 |  | -1.75 | -0.365 | -1.86 |
| S93_Q95del | -0.512 | -0.246 | -0.447 | -0.653 | -0.539 |
| C97K | -0.623 | -0.458 | -1.58 | -0.52 | -0.291 |
| C97S | -0.605 |  | -1.01 | -0.714 | 1.58 |
| C97N | -0.89 | -1.43 | -1.34 | -1.11 | -0.426 |
| C97L | -1.04 | -0.896 | -1.43 | -0.798 | 1.08 |
| C97F | -0.776 | -0.345 | -1.35 | -1.5 | 0.935 |
| C97P | -1.72 | -0.722 | -0.883 | -0.379 | 0.683 |
| C97G | -0.515 | -0.355 | -0.441 | -0.654 | 0.603 |
| C97V | -0.287 | -1.04 | -0.428 | -0.755 | 2.59 |
| C97Y | -1.27 | -0.855 | -1.61 | -1.57 | 0.859 |
| C97Q | -1.59 | -1.54 | -1.98 | -1.42 | 0.422 |
| C97D | -1.97 |  |  | -1.89 | -1.5 |
| C97I | -0.958 | -0.679 | -1.42 | -0.569 | 0.474 |
| C97W | -1.54 | -1.02 | -1.57 | -1.53 | 1.36 |
| C97H | -1.42 | -0.356 | -1.26 | -1.28 | 1.95 |
| C97R | -1.43 | -0.408 | -1.88 | -0.963 | 0.569 |

| Variant | cAMP reporter score ([1]; pH 5.5) | cAMP reporter score ([1]; pH 6) | cAMP reporter score ([1]; pH 6, modulator: ogerin) | cAMP reporter score ([1]; pH 6.5, modulator: ogerin) | surface expression score [2] |
| --- | --- | --- | --- | --- | --- |
| C97E | -1.57 | -1.47 | -1.63 | -0.776 | -1.59 |
| C97A | -1.19 |  | -0.922 | -1.03 | 0.392 |
| C97T | -0.329 | -0.179 | -1.45 | -0.679 | 1.24 |
| Y102_E103insG | -1.44 | -2.41 | -1.74 | -2.27 |  |
| D91del | -1.03 | -0.476 | -2.34 | -0.16 | 0.994 |
| H89_D91del | -1.09 | -1.08 | -0.914 | -0.176 | -0.565 |
| H89_G90insGSG | -0.769 | -1.69 | -1.47 | -0.754 | -0.4 |
| G98_I99insGS | -1.28 |  | -1.04 | -1.68 | -1.17 |
| G90_D91insGSG | -1.61 | -1.03 | -1.11 | -1.3 | -1.15 |
| N104_I105insGS | -3.13 |  | -2.21 | -0.514 | -2.55 |
| V96del | -0.575 | -1.86 | -1.99 | -0.827 | -2.77 |
| G98_I99del | -1.03 | -0.828 | -1.96 | -0.762 | -2.32 |
| S93_C94del | -1.63 |  | -1.73 | -1.46 | -2.33 |
| D91_L92insG | -1.86 | -0.438 | -1.31 | -1.05 | -1.31 |
| Y106_S108del | -1.9 | -1.01 | -1.65 | -1.43 | -2.08 |
| G90_D91del | -0.8 | -0.405 |  | -1.14 | 0.114 |
| Y106_I107insGS | -0.407 | -0.224 |  |  | -1.09 |
| C97_G98insG | -1.85 | -1.26 | -2.37 | -1.27 | -2.13 |
| S88del | -1.54 | -1.04 | -0.992 | -0.391 | -0.929 |
| Y102_N104del | -1.24 | -0.654 | -1.65 | -1.22 | -2.2 |
| L100del | -1.74 | -0.81 | -1.4 | -1.43 | -2.51 |
